Measurements taken from PubChem BioAssay AID485364 (National Center for Advancing Translational Sciences (NCATS), 2010).
Screen size: about 360,000 compounds; about 11,000 (3.1%) were called active. The shares of active, inactive and inconclusive entries below differ from those in the screen. The call rests on the fitted dose curve; in most records, active means well fitted inhibition curve with a large enough effect; inconclusive means small, poorly fitted or top-dose-only effect; inactive means no such curve, though single readings can be large or run the other way. No potency is given beside an inconclusive call; the fits are too rough.

Each compound was assayed against Schistosoma mansoni thioredoxin glutathione reductase (TGR) (UniProt Q962Y6) (assay: qHTS Assay for the Inhibitors of Schistosoma Mansoni Peroxiredoxins). Details: purified TGR, DTNB reduction, TNB absorbance 405 nm; activity change, negative = inhibition: at 114 µM (top of the series) unless noted.
Outline: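 Kinetic colorimetric format: TGR-catalysed, NADPH-driven DTNB reduction monitored via TNB absorbance. Enzyme dispensed at 20 nM; compound exposure 15 min at room temperature before reaction start.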
Further: nearly all actives have a fitted effect of over 60% in size.
On the % scale 0 is the no-effect control and ±100 the full control effect; potency means the concentration at half of the fitted maximal effect; tags describe the fitted curve by direction and shape.

Q: With COc1cccc(-c2csc(N3CCN(C(=S)NCC(C)C)CC3)n2)c1 as the compound, how does the “activity change, negative = inhibition” value read?
A: inactive: 12%

Q: COc1ccc(CC2NCCC3(O)CCCCC23)cc1 (configuration not stated) was tested. Which Potency did it give?
A: inconclusive [inhibitor, single point]

Q: Which “activity change, negative = inhibition” value does the source give for Cc1ccc(-n2[nH]c(C)c(/C=N/Nc3ccc([N+](=O)[O-])cc3[N+](=O)[O-])c2=O)cc1 here?
A: inactive: -1.85%

Q: How did the Potency turn out when Cc1ccc(N2C(=O)NC(=O)/C(=C\c3cn(CC(=O)O)c4ccccc34)C2=O)cc1 was run?
A: inconclusive [inhibitor, single point]

Q: Which Potency does the source give for CCN(CCn1cccn1)C(=O)CC1C(=O)NCCN1CCc1ccccc1 (configuration not stated) here?
A: inconclusive [inhibitor, partial curve]

Q: Cc1ccc(C(=O)/C=C/c2ccc3c(c2)OCO3)o1 was tested. Which Potency did it give?
A: inconclusive [inhibitor, partial curve]

Q: Which “activity change, negative = inhibition” value does the source give for O=C1COc2ccc(-c3csc(NCCc4ccccc4)n3)cc2N1 here?
A: inactive: -2.61%

Q: With CC(NC(=O)CSc1nnc(CC(=O)Nc2ccc(Cl)c(Cl)c2)n1C)c1ccccc1 (configuration not stated) as the compound, how does the Potency read?
A: inconclusive [inhibitor, partial curve]

Q: How did the Potency turn out when COC(=O)C1=C(c2c(C)noc2C)C[C@@H]2CC[C@H]1N2C(=O)NCc1ccco1 was run?
A: inconclusive [inhibitor, partial curve]

Q: How did the Potency turn out when COc1ccc(OCc2cc(C(=O)N(C)Cc3cc(C4CC4)n[nH]3)no2)c(Cl)c1 was run?
A: inconclusive [inhibitor, partial curve]

Q: For O=C1NC(=Nc2ccc(F)cc2)CS1, which Potency is on record?
A: inconclusive [inhibitor, partial curve]

Q: Which “activity change, negative = inhibition” value does the source give for CCOc1ccc(/C=C2\CCC(C3CCCC3)C2=O)cc1 (configuration not stated) here?
A: inactive: 8.47%

Q: For O=C(c1ccco1)N1CCCC(c2nc(-c3ccc(S(=O)(=O)NCc4ccccc4)cc3)no2)C1 (configuration not stated), which “activity change, negative = inhibition” value is on record?
A: inactive: 1.97%

Q: How did the Potency turn out when CN(C)CC(=O)c1ccc(-c2ccccc2)cc1 was run?
A: inconclusive [inhibitor, partial curve]

Q: Cc1ccc(-c2cc(C(=O)NC3=NCCS3)c3cc(Br)ccc3n2)o1 was tested. Which Potency did it give?
A: active: 2.82 µM

Q: CCN(CC)c1ccc(NC(=S)NC(=O)C2CCC2)cc1 was tested. Which Potency did it give?
A: inconclusive [inhibitor, full curve]

Q: CCOc1ccc(Cl)cc1/C=C1/C(=O)ON=C1C was tested. Which Potency did it give?
A: inconclusive [inhibitor, partial curve]

Q: For Cc1ccccc1N(Cc1cc(=O)[nH]c2ccccc12)C(=O)CCl, which Potency is on record?
A: active: 14.1 µM

Q: Which Potency does the source give for COCc1ccc(C(=O)N2CCCC(CNC(=O)c3ccc(F)cc3)C2)o1 (configuration not stated) here?
A: inconclusive [inhibitor, partial curve]

Q: How did the “activity change, negative = inhibition” value turn out when O=C(Cn1c(=O)n2nc(-c3cccc(F)c3)nc2c2ccccc21)N1CCN(c2ccccc2F)CC1 was run?
A: inactive: -1.57%

Q: For Cc1ccc(CC(=O)Nc2nccs2)cc1C, which “activity change, negative = inhibition” value is on record?
A: inactive: -3.75%

Q: For O=C(NCCc1ccccc1)c1ccc(Br)o1, which Potency is on record?
A: inconclusive [inhibitor, full curve, poor fit]

Q: Which Potency does the source give for CCOc1ccc(CN2CCN(Cc3c(C)nn(CC)c3C)CC2CCO)cc1 (configuration not stated) here?
A: inconclusive [inhibitor, partial curve]

Q: With Cc1nc2nc(SCc3ccccc3)[nH]n2c(=O)c1C as the compound, how does the “activity change, negative = inhibition” value read?
A: inactive: 4.64%

Q: How did the Potency turn out when CC(Oc1ccc2c(-c3ccccc3)cc(=O)oc2c1)C(=O)O (configuration not stated) was run?
A: inconclusive [inhibitor, full curve, poor fit]

Q: For COc1cc(NC(=O)c2noc3c2CCCC3)c(OC)cc1Cl, which “activity change, negative = inhibition” value is on record?
A: inactive: 6.64%

Q: O=C(COc1ccc(F)cc1)Nc1ccc(Cl)c(-c2nc3ccccc3[nH]2)c1 was tested. Which “activity change, negative = inhibition” value did it give?
A: inactive: 5.3%

Q: For CN(C)C(=O)Oc1noc2cc(Cl)ccc12, which “activity change, negative = inhibition” value is on record?
A: inactive: 9.33%

Q: Which Potency does the source give for CC(=O)c1cccc(NC(=O)CSc2ccc(-c3ccco3)nn2)c1 here?
A: inconclusive [inhibitor, full curve]

Q: Which Potency does the source give for COc1ccc(CNS(=O)(=O)c2ccc(-c3ccc(=O)[nH]n3)o2)cc1 here?
A: active: 89.1 µM

Q: Which Potency does the source give for CN1COc2ccc3ccccc3c2C1 here?
A: active: 3.98 µM

Q: Which Potency does the source give for CC(C)C(c1nnnn1C1CCCC1)N1CCOCC1 (configuration not stated) here?
A: inconclusive [inhibitor, full curve, poor fit]

Q: Which “activity change, negative = inhibition” value does the source give for COc1ccc(NC(=O)CSc2oc(-c3ccco3)nc2S(=O)(=O)c2ccccc2)c(OC)c1 here?
A: inactive: -29.3%

Q: How did the Potency turn out when CC(C)(C)c1cc(NC(=O)COC(=O)c2ccc(O)cc2O)n(-c2ccccc2)n1 was run?
A: inconclusive [inhibitor, partial curve]

Q: With COc1ccccc1CNC(=O)COC(=O)c1cc(=O)[nH]c2ccccc12 as the compound, how does the “activity change, negative = inhibition” value read?
A: inactive: -5.42%

Q: With O=C(c1cnn(C(=O)c2ccccc2)c1)c1ccccc1O as the compound, how does the Potency read?
A: inconclusive [inhibitor, partial curve]

Q: CCOC(=O)C1=C(C)N=C2SC(C)C(=O)N2C1c1cccc(F)c1 (configuration not stated) was tested. Which Potency did it give?
A: inconclusive [inhibitor, full curve]
